{"source": "PubChem BioAssay AID1645882", "about": "(National Center for Advancing Translational Sciences (NCATS), 2021)", "note": "Several values for one entry are separate records, joined by “and”; a condition that tells them apart may be missing. Identical values can stand only once. Hit rate of the full screen: of about 16,000 compounds, about 120 (0.75%) were called active. The shares of active, inactive and inconclusive entries below differ from those in the screen. Calls come from the whole dose curve; as a rule, active = well fitted inhibition curve with a large enough effect; inconclusive = small, poorly fitted or top-dose-only effect; inactive = no such curve, though single readings can be large or run the other way. Potencies beside an inconclusive call are fits to weak or partial responses and may not hold up. Potency is the fitted concentration of half-maximal effect; tags give direction and shape of the fitted curve."}
{"molecular_target": "Rap guanine nucleotide exchange factor 3 (Homo sapiens) (UniProt O95398)", "sequence (O95398 whole entry, looked up)": "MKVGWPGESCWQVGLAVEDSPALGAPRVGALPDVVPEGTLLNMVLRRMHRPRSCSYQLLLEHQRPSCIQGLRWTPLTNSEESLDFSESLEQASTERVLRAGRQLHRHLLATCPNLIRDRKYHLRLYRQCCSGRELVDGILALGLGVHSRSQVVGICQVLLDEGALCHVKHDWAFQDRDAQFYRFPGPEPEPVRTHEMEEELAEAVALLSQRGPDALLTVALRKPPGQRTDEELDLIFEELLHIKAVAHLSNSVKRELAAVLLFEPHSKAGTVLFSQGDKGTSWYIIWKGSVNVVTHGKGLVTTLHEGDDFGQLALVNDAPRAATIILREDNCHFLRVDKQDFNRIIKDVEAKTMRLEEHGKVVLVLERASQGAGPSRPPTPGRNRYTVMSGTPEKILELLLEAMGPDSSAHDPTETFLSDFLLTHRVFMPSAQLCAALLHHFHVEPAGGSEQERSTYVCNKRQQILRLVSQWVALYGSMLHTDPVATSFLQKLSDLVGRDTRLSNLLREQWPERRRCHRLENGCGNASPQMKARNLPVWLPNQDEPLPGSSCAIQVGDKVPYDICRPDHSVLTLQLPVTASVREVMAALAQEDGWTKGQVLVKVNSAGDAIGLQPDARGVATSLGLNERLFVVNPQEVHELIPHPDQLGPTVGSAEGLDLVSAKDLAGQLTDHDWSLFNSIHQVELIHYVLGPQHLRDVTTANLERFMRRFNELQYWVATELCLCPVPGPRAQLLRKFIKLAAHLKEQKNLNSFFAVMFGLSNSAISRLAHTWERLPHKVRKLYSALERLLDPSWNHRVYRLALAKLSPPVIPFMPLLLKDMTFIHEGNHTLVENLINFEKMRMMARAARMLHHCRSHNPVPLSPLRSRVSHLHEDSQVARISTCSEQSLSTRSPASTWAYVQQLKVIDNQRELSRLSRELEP", "experiment": "Validation qHTS for antagonist of cAMP-regulated guanine nucleotide exchange factor 3 (EPAC1); note: nearly all actives have a fitted effect of over 75% in size", "details": "EPAC1 Rap1B-BODIPY-GDP exchange, fluorescence; series mostly up to 150 µM", "in_short": "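Nucleotide exchange followed as fluorescence loss when BODIPY-GDP leaves Rap1B (480 nm excitation, 540 nm emission), read at 5 min intervals over 30 min. Reaction: 100 nM EPAC1, 250 nM RAP1B-BODIPY-GDP, 50 uM GDP; ATA and DMSO define normalization.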"}
{"smiles": "CCCCCCCCCCCCCCCC[N+](C)(C)CC", "Potency": "inconclusive: 112 µM [inhibitor, single point]"}
{"smiles": "Fc1ccc(N2CCN(Cc3ccc4c(c3)CN(Cc3cccn3-c3cccnc3)CCO4)CC2)cc1", "Potency": "inactive"}
{"smiles": "CCOC(=O)[C@@H](C)N(C(=O)OC(C)(C)C)S(=O)(=O)N(Cc1ccccc1)[C@H](C(=O)OC)C(C)C", "Potency": "inconclusive: 28.2 µM [inhibitor, full curve]"}
{"smiles": "COc1cccc(-c2oc3ccccc3c(=O)c2O)c1", "Potency": "inactive"}
{"smiles": "CCCCCCCCN1[C@@H](CC(=O)OCC)c2cc(F)ccc2S1(=O)=O", "Potency": "inconclusive: 100 µM [inhibitor, single point]"}
{"smiles": "CC(=O)OC1CC2C(C)(C)CCC(=O)[C@@]2(C)C2CC[C@@]3(C)C(c4ccoc4)OC(=O)C4OC43[C@]12C", "note": "(stereo partly drawn)", "Potency": "inconclusive: 70.8 µM [inhibitor, partial curve]"}
{"smiles": "O=C1c2c(O)cccc2[C@@H]([C@@H]2O[C@H](CO)[C@@H](O)[C@H](O)[C@H]2O)c2cc(CO)cc(O)c21", "Potency": "inactive"}
{"smiles": "C[C@@H](/C=C\\c1cccc(Oc2ccc(F)cc2)c1)N(O)C(N)=O", "Potency": "inconclusive: 50.1 µM [inhibitor, partial curve]"}
{"smiles": "Cc1nc2cnc(Oc3ccccc3)nc2n(Cc2cccs2)c1=O", "Potency": "inconclusive: 112 µM [inhibitor, single point]"}
{"smiles": "COC(=O)c1ccc(-c2cccc3c2OC(CNC(=O)c2ccc4c(c2)OCCO4)C3)nc1", "note": "(stereo not drawn)", "Potency": "inactive"}
{"smiles": "Cc1ccccc1-c1nc(NCc2cccs2)c2ccccc2n1", "Potency": "inconclusive: 70.8 µM [inhibitor, partial curve]"}
{"smiles": "N[C@@H](C(=O)O)c1ccc(C(=O)O)c(C(=O)O)c1", "Potency": "inconclusive: 63.1 µM [inhibitor, partial curve, poor fit] and inconclusive: 50.1 µM [inhibitor, partial curve] and inconclusive: 44.7 µM [inhibitor, partial curve]"}
{"smiles": "CC(C)c1c(O)ccc2c1CCC1C(C)(C)CCC[C@@]21C", "note": "(stereo partly drawn)", "Potency": "inconclusive: 39.8 µM [inhibitor, full curve]"}
{"smiles": "Cc1ccccc1-c1ccc2ncnc(NCc3cccs3)c2c1", "Potency": "inconclusive: 126 µM [inhibitor, single point]"}
{"smiles": "O=C(O)c1[nH]n(-c2ccc(S(=O)(=O)O)cc2)c(=O)c1N=Nc1ccc(S(=O)(=O)O)cc1", "Potency": "inconclusive: 31.6 µM [inhibitor, partial curve, poor fit]"}
{"smiles": "CC(=O)Oc1cc(OC(C)=O)c2c(c1)OC(c1ccc(OC(C)=O)c(OC(C)=O)c1)C(OC(C)=O)C2", "note": "(stereo not drawn)", "Potency": "inactive"}
{"smiles": "C=CC[C@@H]1/C=C(\\C)C[C@H](C)C[C@H](OC)[C@H]2O[C@@](O)(C(=O)C(=O)N3CCCC[C@H]3C(=O)O[C@H](/C(C)=C/[C@@H]3CC[C@@H](O)[C@H](OC)C3)[C@H](C)[C@@H](O)CC1=O)[C@H](C)C[C@@H]2OC", "Potency": "inconclusive: 63.1 µM [inhibitor, partial curve, poor fit]"}
{"smiles": "COc1ccc(CN2CCC(n3cc(C(=O)N4CCCC4)nn3)CC2)c(OC)c1C", "Potency": "inactive"}
{"smiles": "CS(=O)(=O)N1CCC2(CCN(c3cccc(-c4ccccc4)c3)CC2)CC1", "Potency": "inconclusive: 126 µM [inhibitor, single point]"}
{"smiles": "CC[C@@H](C)[C@H]1O[C@]2(CC[C@H]1C)C[C@@H]1C[C@@H](CC=C(C)[C@@H](O[C@H]3C[C@H](OC)[C@@H](O[C@H]4C[C@H](OC)[C@@H](O)[C@H](C)O4)[C@H](C)O3)[C@@H](C)C=CC=C3CO[C@@H]4[C@H](O)C(C)=C[C@@H](C(=O)O1)[C@]34O)O2", "Potency": "inconclusive: 2.24 µM [inhibitor, partial curve, poor fit]"}
{"smiles": "COc1ccc2[nH]cc(CCNc3ncncc3-c3ccccc3OC)c2c1", "Potency": "inconclusive: 112 µM [inhibitor, partial curve, poor fit]"}
{"smiles": "CCCCCCCCCCCCC/C=C\\[C@@H](O)[C@H](CO)NC(C)=O", "Potency": "inconclusive: 56.2 µM [inhibitor, partial curve, poor fit]"}
{"smiles": "CCCCCCCC/C=C\\CCCCCCCC(=O)N[C@@H](CO)Cc1ccc(O)cc1", "Potency": "inconclusive: 15.8 µM [inhibitor, full curve, poor fit]"}
{"smiles": "Cc1cc2c(cc1C)N[C@]1(C[C@H]3CCCC(=O)N4CC[C@@H](C1)[C@@H]34)C(=NC(C)(C)CC(C)(C)C)N2", "Potency": "inconclusive: 28.2 µM [inhibitor, full curve]"}
{"smiles": "CCCCCc1ccc(C)cc1O", "Potency": "inconclusive: 56.2 µM [inhibitor, partial curve]"}
{"smiles": "CS(=O)(=O)N1CCC2(CCCN(Cc3cc(C(F)(F)F)cc(C(F)(F)F)c3)C2)CC1", "Potency": "inconclusive: 89.1 µM [inhibitor, partial curve, poor fit]"}
{"smiles": "O=S(=O)(NCc1ccc(F)cc1)c1cc(Br)ccc1Br", "Potency": "inconclusive: 100 µM [inhibitor, single point]"}
{"smiles": "CCCCCCCCN1[C@@H](CC(=O)O)c2ccc(C(F)(F)F)cc2S1(=O)=O", "Potency": "inconclusive: 112 µM [inhibitor, single point]"}
{"smiles": "O=c1c(O)cccc2cc(O)c(O)c(O)c12", "Potency": "inconclusive: 50.1 µM [inhibitor, partial curve, poor fit]"}
{"smiles": "N#Cc1ccc(CN2CCCC3(CCN(C(=O)c4cc(C(F)(F)F)cc(C(F)(F)F)c4)CC3)C2)cc1", "Potency": "inconclusive: 44.7 µM [inhibitor, partial curve]"}
{"smiles": "O=c1cc(-c2ccccc2O)oc2c(O)c(O)ccc12", "Potency": "inconclusive: 79.4 µM [inhibitor, partial curve, poor fit]"}
{"smiles": "CC1(C)CO[C@H](CC(=O)O)CN1", "Potency": "inconclusive: 31.6 µM [inhibitor, single point]"}
{"smiles": "COc1cccc(-c2nccc(NCc3cccs3)n2)c1", "Potency": "inconclusive: 63.1 µM [inhibitor, partial curve, poor fit]"}
{"smiles": "O=C(OC[C@H]1O[C@@H](OC(=O)c2cc(O)c(O)c(OC(=O)c3cc(O)c(O)c(O)c3)c2)[C@H](OC(=O)c2cc(O)c(O)c(OC(=O)c3cc(O)c(O)c(O)c3)c2)[C@@H](OC(=O)c2cc(O)c(O)c(OC(=O)c3cc(O)c(O)c(O)c3)c2)[C@@H]1OC(=O)c1cc(O)c(O)c(OC(=O)c2cc(O)c(O)c(O)c2)c1)c1cc(O)c(O)c(OC(=O)c2cc(O)c(O)c(O)c2)c1", "Potency": "active: 11.2 µM"}
{"smiles": "CCCCC(=O)O[C@H]1CC[C@H]2[C@@H]3CCc4cc(O)ccc4[C@H]3CC[C@]12C", "Potency": "inconclusive: 31.6 µM [inhibitor, full curve]"}
{"smiles": "O=C(O)c1cc(O)c2c(c1)C(=O)c1cccc(O)c1C2=O", "Potency": "inconclusive: 100 µM [inhibitor, partial curve, poor fit]"}
{"smiles": "CC1(C)C(\\C=C/C=C\\C=C/C=C2/N(CCCCS(=O)(=O)O)c3ccc4ccccc4c3C2(C)C)=[N+](CCCCS(=O)(=O)[O-])c2ccc3ccccc3c21", "Potency": "inconclusive: 63.1 µM [inhibitor, partial curve, poor fit]"}
{"smiles": "COc1cccc(Cn2c(=O)c(-c3cc(F)cc(F)c3)nc3cncnc32)c1", "Potency": "inactive"}
{"smiles": "Cc1cccc2[nH]cc(/C=C3/C=Nc4ccccc43)c12", "Potency": "inactive"}
{"smiles": "CCCCCCCCN1[C@@H](CC(=O)OC)c2cc(C(F)(F)F)ccc2S1(=O)=O", "Potency": "inconclusive: 22.4 µM [inhibitor, full curve]"}
{"smiles": "Cc1c(C)c2c(c(C)c1O)CCC(C)(COc1ccc(CC3SC(=O)NC3=O)cc1)O2", "note": "(stereo not drawn)", "Potency": "inconclusive: 126 µM [inhibitor, single point] and active: 100 µM"}
{"smiles": "COc1cc2cc(Oc3ccc4ccc(=O)oc4c3)c(=O)oc2cc1O", "Potency": "inconclusive: 10 µM [inhibitor, partial curve, poor fit]"}
{"smiles": "COc1cc(-c2noc(C)c2-c2ccc3[nH]ccc3c2)cc(OC)c1OC", "Potency": "inconclusive: 50.1 µM [inhibitor, partial curve, poor fit]"}
{"smiles": "CNc1ccc(/C=C/c2ccccc2)cc1", "Potency": "inconclusive: 28.2 µM [inhibitor, partial curve, poor fit]"}
{"smiles": "COc1ccc(C(=O)N2CCC[C@@]3(CCN(Cc4cc(C(F)(F)F)cc(C(F)(F)F)c4)C3)C2)cc1", "Potency": "inconclusive: 44.7 µM [inhibitor, partial curve]"}
{"smiles": "O=S1(=O)CCOC[C@H](CC2CCCCC2)N1Cc1cccc(C(F)(F)F)c1", "Potency": "inconclusive: 31.6 µM [inhibitor, full curve]"}
{"smiles": "CC1(C)Oc2ccc(C#N)cc2[C@@H](N2CCCC2=O)[C@@H]1O", "Potency": "inconclusive: 28.2 µM [inhibitor, full curve]"}
{"smiles": "CCO[C@@H]1O[C@H](C(COCc2ccccc2)OCc2ccccc2)[C@H](OCc2ccccc2)[C@H]1O", "note": "(stereo partly drawn)", "Potency": "inconclusive: 15.8 µM [inhibitor, full curve]"}
{"smiles": "Cc1cc[n+](C2CCCCC2)c2ccccc12", "Potency": "inconclusive: 112 µM [inhibitor, partial curve, poor fit]"}
{"smiles": "CCc1cccc2c(C(O)c3c[nH]c4ccccc34)c[nH]c12", "note": "(stereo not drawn)", "Potency": "inactive"}
{"smiles": "Cc1ccc(SCCN2CCC(C(C)(C)C)CCC2=O)cc1", "note": "(stereo not drawn)", "Potency": "inconclusive: 39.8 µM [inhibitor, partial curve, poor fit]"}
{"smiles": "COC(=O)/C=C/c1ccc2c(c1)S(=O)(=O)N(C1CCCC1)[C@H]2CC(=O)OC", "Potency": "inconclusive: 50.1 µM [inhibitor, full curve]"}
{"smiles": "CC1=C(/C=C/C(C)=C/C=C/C(C)=C/C(=O)O)C(C)(C)CCC1", "Potency": "inconclusive: 100 µM [inhibitor, single point]"}
